Test results as given in PubChem BioAssay AID2546 (National Center for Advancing Translational Sciences (NCATS), 2010).
Hit rate of the full screen: of about 310,000 compounds, about 11,000 (3.5%) were called active. The shares of active, inactive and inconclusive entries below differ from those in the screen. Calls follow the shape of the dose curve; as a rule, active = well fitted inhibition curve with a large enough effect; inconclusive = small, poorly fitted or top-dose-only effect, or effect the other way; inactive = flat fitted curve, though single readings scatter. Potencies of inconclusive entries are left out as doubtful fits.

assay: VP16 counterscreen qHTS for inhibitors of ROR gamma transcriptional activity; details: Drosophila S2 Gal4-VP16 UAS-luciferase, luminescence, 20 h; activity, negative = inhibition: at 53.6 µM (top of the series);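 also: Gal4-VP16 expression switched on by copper sulfate through the metallothionein promoter; nearly all actives have a fitted effect of over 50% in size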
% is scaled to controls: 0 for no effect and ±100 for the full control effect; potency is read from the fitted curve at half-maximal effect; tags tell the direction and shape of the fitted curve.

Structure (SMILES) | Potency | activity, negative = inhibition
OC(CNCCC1C=Nc2ccccc21)Cn1c2ccc(Cl)cc2c2cc(Cl)ccc21 (stereo unspecified) | active: 12.6 µM | 
Oc1ccc(Br)cc1/C=N/n1c(COc2ccccc2)n[nH]c1=S | inconclusive [inhibitor, single point] | 
O=C(/C=C/c1ccccc1Cl)c1ccccc(=O)c1O | active: 5.62 µM | 
Cc1cccc(NC(=S)N=Nc2c(O)n(CN3CCOCC3)c3ccccc23)c1C | active: 1.12 µM | 
C[C@@H](C(=O)Nc1ccc2ccccc2c1)[C@H]1C[C@]1(C)[C@H](NC(=O)OCc1ccccc1)c1ccccc1 | inactive | 
O=C(c1ccccc1)c1nc[nH]c1C(=O)Nc1ccccn1 | active: 17.8 µM | 
CC(C)c1nnc(NC(=O)CC(C)c2ccccc2)s1 (stereo unspecified) |  | inactive: -1.88%
Cc1ccc(/C=C/C(=O)c2nc3ccccc3[nH]2)cc1 | inconclusive [inhibitor, single point] | 
Cn1c(=O)c2c(nc(NCc3ccccc3)n2CCCc2ccccc2)n(C)c1=O |  | inactive: -6.73%
Nc1ccc(-c2cc(-c3cccc(N)c3)nc(-c3ccccc3)n2)cc1 |  | inactive: -19.9%
CCc1cc2c(C)ccc(C)c2nc1SCC(=O)Nc1c(C)[nH]c(=O)[nH]c1=O | inconclusive [inhibitor, full curve, poor fit] | 
O=C(C[n+]1cc(-c2ccccc2)n2c1CCCCC2)c1ccc(Cl)cc1 | inconclusive [inhibitor, partial curve] | 
CC(=O)Nc1ccc(NC(=O)CNS(=O)(=O)c2ccc(C)cc2)cc1 | inconclusive [inhibitor, single point] | 
CNCC(=O)Nc1ccc(OC(F)(F)F)cc1 |  | inactive: -6.17%
Cc1cc([N+](=O)[O-])nn1CCCC(=O)NC(C)c1ccccc1 (stereo unspecified) |  | inactive: -43.9%
Fc1ccc(-c2n[nH]c(=S)n2CC2CCCO2)cc1 (stereo unspecified) | inconclusive [inhibitor, single point] | 
Cc1csc(N/N=C/c2ccccn2)n1 | active: 1.12 µM | 
Cn1c(O)c(N=NC(N)=S)c2ccccc21 | active: 3.16 µM | 
Fc1ccc(-c2nn3c(C4COc5ccccc5O4)nnc3s2)cc1 (stereo unspecified) | inconclusive [inhibitor, single point] | 
Cc1snc2sc(C(=O)c3ccc(Br)cc3)c(N)c12 | inconclusive [inhibitor, full curve] | 
Cn1c(=O)c(-c2cc(F)cc(F)c2)nc2cnc(Oc3cccc(Cl)c3)nc21 |  | inactive: 11.3%
Cn1c(C(C#N)C(=O)c2sc3ccccc3c2Cl)nc2ccccc21 (stereo unspecified) | active: 4.47 µM | 
C[C@@]12C(=O)OC(=O)[C@@]1(C)C1CCC2O1 | active: 5.01 µM | 
CC(NC(=O)c1ccc2c(c1)OCO2)C1CCCO1 (stereo unspecified) |  | inactive: 3.6%
Cc1ccc(-n2ncc3c2CCCC3NC(=O)c2ocnc2C)cc1C (stereo unspecified) | active: 7.08 µM | 
CC(=O)Nc1cccc(NC=C(C#N)C#N)c1 |  | inactive: -0.655%

Structure (SMILES) | Potency | activity, negative = inhibition
COc1ccc(C(=O)Nc2c(N)nc(SCC(=O)NCC3CCCO3)[nH]c2=O)cc1 (stereo unspecified) |  | inactive: -3%
COc1cccc2sc(N(CCCN(C)C)C(=O)C(c3ccccc3)c3ccccc3)nc12 | inconclusive [inhibitor, single point] | 
COCCOC(=O)CSc1ncccc1-c1nc2cc(C)c(C)cc2[nH]1 | inconclusive [inhibitor, single point] | 
NS(=O)(=O)c1ccc(CCNC(=O)CN2CCC(Cc3ccccc3)CC2)cc1 | inconclusive [inhibitor, single point] | 
Cc1c(C(=O)N(C)C2CCCCC2)sc2ncnc(N3CCN(c4ccccc4)CC3)c12 | inconclusive [inhibitor, single point] | 
Brc1ccc(C2=CC(c3cccs3)n3ncnc3N2)cc1 (stereo unspecified) | inconclusive [inhibitor, single point] | 
COC(=O)Cc1ccc(NC(=S)NN2CCOCC2)cc1 |  | inactive: 0.0679%
Cc1ccc(C2C(C#N)=C(N)Oc3cc(C)oc(=O)c32)o1 (stereo unspecified) | inconclusive [inhibitor, single point] | 
Cc1cc(C)nc(/N=C2/NC(=O)CS2)n1 |  | inactive: -1.44%
CCOC(=O)C1=C(C)Nc2nnnn2C1c1c[nH]c2ccccc12 (stereo unspecified) | active: 22.4 µM | 
Cc1cc(C)c(O)c(-c2cc(C(=O)Nc3ccc(S(=O)(=O)N4CCOCC4)cc3)[nH]n2)c1 | inconclusive [inhibitor, single point] | 
CC1=NN(c2nc3ccccc3[nH]2)C(=O)/C1=C/N(C)C | inconclusive [inhibitor, partial curve] | 
COc1ccc(OCc2cc(C(=O)N[C@H]3CCCCNC3=O)no2)c(Cl)c1 |  | inactive: -0.562%
O=C1Nc2ccccc2/C1=C/C(=O)c1cccs1 | inconclusive [inhibitor, single point] | 
Cc1cc(C)c2nc(NNC(=O)c3ccc(S(=O)(=O)N4CCCCC4)cc3)sc2c1 | active: 8.91 µM | 
COCCOCCn1c(/C=C/c2ccccc2)nc2ccccc21 | inconclusive [inhibitor, single point] | 
COc1cc(NC(=O)COC(=O)CCCC2=NS(=O)(=O)c3ccccc3N2)cc(OC)c1 |  | inactive: -3.98%
COc1c(/C=N/NC(=O)c2ccccc2O)c(CCN(C)C(C)=O)cc2c1OCO2 | inconclusive [activator, single point] | 
COc1cc(/C=C/c2nc(-c3ccccc3O)n[nH]2)cc(OC)c1OC | inconclusive [inhibitor, single point] | 
C/C(Cn1cnc([N+](=O)[O-])n1)=N\NC(=O)c1cccc(F)c1 | inconclusive [inhibitor, single point] | 
Cc1ccc(C(=O)N/C(=C\c2ccc(-c3ccccc3[N+](=O)[O-])o2)C(=O)NCCN(C)C)cc1 | active: 10 µM | 
COc1cccc(CNC(=S)Nc2cccc(Cl)c2C)c1 | active: 3.55 µM | 
C/C(CC(=O)Nc1cc(C)ccn1)=N\NC(=O)c1cccc(C)c1O | active: 5.01 µM | 
CCCNC(=O)c1cn(CC)c2cc(N3CCN(C)CC3)c(F)cc2c1=O |  | inactive: -1.22%
COC(=O)c1ccccc1NC(=S)NC(=O)c1ccc2c(c1)OCO2 | inconclusive [inhibitor, single point] | 
COc1ccc(-c2noc(CCCC(=O)O)n2)cc1 | active: 0.355 µM | 

Structure (SMILES) | Potency | activity, negative = inhibition
O=C(NC(=S)Nc1ccc2c(c1)OCCO2)c1cccc2ccccc12 | inconclusive [inhibitor, single point] | 
CCC(=O)Nc1nc(-c2ccccc2)ns1 | inconclusive [activator, single point] | 
Cc1noc(C)c1C(=O)OCC(=O)Nc1cc(S(=O)(=O)N2CCOCC2)ccc1Cl |  | inactive: -6.2%
Cc1ccc(NC(=O)c2cc3ccccc3oc2=O)cc1S(=O)(=O)N(C)C | inconclusive [inhibitor, full curve] | 
CNC(=S)NNC(=O)c1ccc(C(C)(C)C)cc1 | inconclusive [inhibitor, partial curve] | 
CCc1nc(N2CCN(C(C)=O)CC2)c2c3c(sc2n1)CC(C(C)(C)C)CC3 (stereo unspecified) | inconclusive [inhibitor, single point] | 
O=C(/C=C/c1cn(-c2ccccc2)nc1-c1cccnc1)c1ccco1 | inconclusive [inhibitor, single point] | 
NS(=O)(=O)c1cc(C(=O)Nc2ccc3c(c2)CCC3)ccc1Cl | inconclusive [inhibitor, full curve, poor fit] | 
O=C(N/N=C\C=C\c1ccco1)c1cncc(Br)c1 | inconclusive [inhibitor, single point] | 
Cc1ccc(NC(=O)COC(=O)c2cccnc2)c(C)c1 |  | inactive: 6.47%
CCn1cnc2cc(NCc3cccc(OC)c3O)ccc21 | inconclusive [inhibitor, single point] | 
CCOC(=O)c1sc(NNC(=O)c2ccc(C)cc2)nc1C | inconclusive [inhibitor, partial curve] | 
COc1ccc2nc(Nc3nc4cc5c(cc4s3)OCCO5)sc2c1 | inconclusive [inhibitor, single point] | 
O=C(CSc1nnc(COc2ccccc2)n1Cc1ccco1)c1ccc(F)cc1 | inconclusive [inhibitor, partial curve] | 
CC(C)C(C)NC(=O)COc1ccc(Sc2ccc(OCC(=O)NC(C)C(C)C)cc2)cc1 (stereo unspecified) | inconclusive [inhibitor, full curve] | 
CCOC(=O)c1ccc(Nc2ccc(-c3ccc(OC)c(OC)c3)nn2)cc1 | inconclusive [inhibitor, partial curve, poor fit] | 
CC(Sc1cccc(C(F)(F)F)c1)C(=O)NC(N)=O (stereo unspecified) |  | inactive: -14.9%
COc1cccc(N2CCN(c3ncnc4c3[nH]c3ccccc34)CC2C)c1 (stereo unspecified) | active: 14.1 µM | 
S=C(Nc1ccc(Cl)c(Cl)c1)NC1CCN(Cc2ccccc2)CC1 | active: 35.5 µM | 
CCOc1ccc(Cl)cc1CNCCCSc1nc(C)cc(C)n1 | inconclusive [inhibitor, single point] | 
OCCCNC(=S)Nc1ccc(Oc2ccccc2)cc1 | inconclusive [activator, single point] | 
CCN(CC)CCOc1ccc(Br)cc1 | inconclusive [activator, single point] | 
NC(=O)CC(NC(=O)c1ccc(Br)cc1)c1ccc(N2CCCCCC2)c([N+](=O)[O-])c1 (stereo unspecified) | inconclusive [inhibitor, single point] | 
O=C(COc1ccc(Cl)cc1Cl)Nc1nnc(C2=COCCO2)o1 | active: 4.47 µM | 
